According to PMC10965988, “PDGFRA K385 mutants in myxoid glioneuronal tumors promote receptor dimerization and oncogenic signaling” (Scientific Reports, 2024):

Biological target: the molecule itself
Assay: co-IP; HEK293T co-transfected with HA- and MYC-tagged PDGFRα; lysis in RIPA buffer; immunoprecipitation with anti-HA overnight at 4 °C, Protein A/G resin; western blot with anti-MYC; in the absence of ligand

B1: platelet-derived growth factor receptor alpha (PDGFRα) K385L, HA- and MYC-tagged (receptor, UniProt P16234 24-1089, looked up)
chain: QLSLPSILPNENEKVVQLNSSFSLRCFGESEVSWQYPMSEEESSDVEIRNEENNSGLFVTVLEVSSASAAHTGLYTCYYNHTQTEENELEGRHIYIYVPDPDVAFVPLGMTDYLVIVEDDDSAIIPCRTTDPETPVTLHNSEGVVPASYDSRQGFNGTFTVGPYICEATVKGKKFQTIPFNVYALKATSELDLEMEALKTVYKSGETIVVTCAVFNNEVVDLQWTYPGEVKGKGITMLEEIKVPSIKLVYTLTVPEATVKDSGDYECAARQATREVKEMKKVTISVHEKGFIEIKPTFSQLEAVNLHEVKHFVVEVRAYPPPRISWLKNNLTLIENLTEITTDVEKIQEIRYRSKLKLIRALEEDSGHYTIVAQNEDAVKSYTFELLTQVPSSILDLVDDHHGSTGGQTVRCTAEGTPLPDIEWMICKDIKKCNNETSWTILANNVSNIITEIHSRDRSTVEGRVTFAKVEETIAVRCLAKNLLGAENRELKLVAPTLRSELTVAAAVLVLLVIVIISLIVLVVIWKQKPRYEIRWRVIESISPDGHEYIYVDPMQLPYDSRWEFPRDGLVLGRVLGSGAFGKVVEGTAYGLSRSQPVMKVAVKMLKPTARSSEKQALMSELKIMTHLGPHLNIVNLLGACTKSGPIYIITEYCFYGDLVNYLHKNRDSFLSHHPEKPKKELDIFGLNPADESTRSYVILSFENNGDYMDMKQADTTQYVPMLERKEVSKYSDIQRSLYDRPASYKKKSMLDSEVKNLLSDDNSEGLTLLDLLSFTYQVARGMEFLASKNCVHRDLAARNVLLAQGKIVKICDFGLARDIMHDSNYVSKGSTFLPVKWMAPESIFDNLYTTLSDVWSYGILLWEIFSLGGTPYPGMMVDSTFYNKIKSGYRMAKPDHATSEVYEIMVKCWNSEPEKRPSFYHLSEIVENLLPGQYKKSYEKIHLDFLKSDHPAVARMRVDSDNAYIGVTYKNEEDKLKDWEGGLDEQRLSADSGYIIPLPDIDPVPEEEDLGKRNRHSSQTSEESAIETGSSSSTFIKREDETIEDIDMMDDIGIDSSDLVEDSFL
notes: platelet-derived growth factor receptor alpha (PDGFRA) with the tumour-derived substitution K385L, made by site-directed mutagenesis; The two tags stand on two separate copies of the receptor (one HA-tagged, one MYC-tagged), co-expressed; The mutation occurs in myxoid glioneuronal tumors; The HA-tagged construct is not described in the methods; source: HEK293T, co-transfected, in lysate (RIPA …)
Q: Which “fold dimerization against the WT receptor (Myc/HA band ratio)” value does the source give for B1 here?
A: The value was about 3 fold.
